The values below come from paper PMC2782468 (Nature structural & molecular biology, 2009).

For the experiment, the target named is T1, human nuclear cap-binding complex (CBC), CBP20 and CBP80 co-expressed (human, UniProt Q09161;P52298).
T1 sequence 1: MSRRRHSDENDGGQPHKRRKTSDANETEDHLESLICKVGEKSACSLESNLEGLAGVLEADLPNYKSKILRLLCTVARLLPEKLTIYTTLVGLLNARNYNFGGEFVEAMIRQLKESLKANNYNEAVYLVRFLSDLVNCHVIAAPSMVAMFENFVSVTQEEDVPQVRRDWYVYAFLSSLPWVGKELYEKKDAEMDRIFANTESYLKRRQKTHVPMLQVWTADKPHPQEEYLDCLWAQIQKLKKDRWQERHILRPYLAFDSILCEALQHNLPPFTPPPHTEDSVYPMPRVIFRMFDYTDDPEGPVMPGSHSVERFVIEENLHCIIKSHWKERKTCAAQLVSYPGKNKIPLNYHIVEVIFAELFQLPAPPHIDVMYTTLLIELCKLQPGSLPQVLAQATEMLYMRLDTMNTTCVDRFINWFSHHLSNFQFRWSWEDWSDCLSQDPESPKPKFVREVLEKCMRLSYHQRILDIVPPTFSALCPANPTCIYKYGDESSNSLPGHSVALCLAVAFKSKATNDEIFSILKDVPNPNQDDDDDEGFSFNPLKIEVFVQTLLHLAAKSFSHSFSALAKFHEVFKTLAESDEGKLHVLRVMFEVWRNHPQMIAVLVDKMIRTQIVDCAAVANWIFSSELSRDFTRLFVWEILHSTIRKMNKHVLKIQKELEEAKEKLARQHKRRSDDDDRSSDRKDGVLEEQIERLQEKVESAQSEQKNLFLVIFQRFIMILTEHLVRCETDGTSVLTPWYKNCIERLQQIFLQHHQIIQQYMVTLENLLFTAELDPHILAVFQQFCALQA
T1 sequence 2: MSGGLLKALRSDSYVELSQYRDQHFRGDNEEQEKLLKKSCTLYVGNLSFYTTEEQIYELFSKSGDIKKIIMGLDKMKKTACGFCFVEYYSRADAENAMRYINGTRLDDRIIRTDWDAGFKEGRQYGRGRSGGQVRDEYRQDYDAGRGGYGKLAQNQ
Nature of the experiment: native gel or EMSA. Background: Mobility shift assays separate free from complexed probe on a gel.

B1: importin-β ([…]) (domain or fragment)
chain: not shown
As to B1, the binding result was “binds”.
